Screen size: about 150,000 compounds; about 540 (0.36%) showed an effect of 50% or more. This is one part of the list.
Each compound was assayed on Plasmodium falciparum (assay: Primary screen in NF54 nanoGlo assay, in single point, at 2uM, 72h; a lower Z score goes with more inhibition). Conditions: timepoint 72 hour.
Type: functional, Erythrocyte

Compound | % Inhibition | Z score
O=C(N/C(=N/c1ccccc1)NC[C@H]1CCCO1)c1ccc(C(F)(F)F)cc1 | -20% | 1.81
CC(C)N1C(=O)NC2(CCN(CC(O)c3cccc(F)c3)C2)C1=O (stereo unspecified) | -9% | 0.95
CS(=O)(=O)c1ccc(NC(=O)N2CCC3CCCCC32)cc1F (stereo unspecified) | -6% | 1.19
CC[C@@H]1C(=O)NCCCN1C(=O)Cn1nc(C(F)F)cc1C1CC1 | 17% | -2.1
C[C@@H](CN1CCCC1)OC(=O)c1ccc(Cl)cc1Cl | 28% | -3.19
Cc1ccc2c(NC(=O)Cc3ccccc3)c(C)ccc2n1 | -6% | 0.91
C[C@@H](C(=O)Nc1nccs1)N(C)Cc1noc(-c2ccccc2)n1 | 0% | -0.08
CC(=O)Nc1ccc(C)cc1-c1nc2ccccc2n(CC(=O)Nc2ccc3c(c2)OCO3)c1=O | 13% | -2.15
CN1C(=O)[C@@H]2CCCCN2c2ccc(C(=O)NCCc3c[nH]c4ccccc34)cc21 | -1% | 0.08
CC1(C)CC(=O)N(Cc2cnn(-c3ccccc3)n2)C1=O | -12% | 1.61
Cc1nn(C)cc1C(=O)NC1(C(F)F)CC1 | -19% | 1.84
COc1ccccc1CCC(=O)N(Cc1ccc(OC)c(OC(C)C)c1)C1CCCC1 | -14% | 1.83
Cc1noc(CC(NC(=O)C(O)c2ccccc2)c2ccccc2)n1 (stereo unspecified) | -1% | 0.16
CCCOCC(=O)N1CCC(Cc2ncc[nH]2)CC1 | -14% | 1.37
C[C@H](Nc1ccc2c(c1)OCCCO2)C(=O)N1CCCC1 | -1% | 0.16
Cc1noc(C2CCN(C(=O)c3c(C)ccn3C)CC2)n1 | 2% | -0.25
O=C(N[C@H]1CCN(Cc2ccccn2)C[C@@H]1O)c1ccc(Cl)s1 | -9% | 1.71
O=C(Cc1ccc(-c2ccccc2)cc1)N1CC(N2C(=O)CCC2=O)C1 | -4% | 0.49
c1ccc2oc(CNc3cncc(-n4cccn4)n3)cc2c1 | 2% | -0.26
COCCc1ccc2oc(NCc3cnn(CC(C)C)c3)nc2c1 | -6% | 0.78
Cc1c(C)n(C[C@H](O)Cn2c(C(F)(F)F)nc3ccccc32)c2c(Cl)cccc12 | 38% | -4.31

Compound | % Inhibition | Z score
CC(CC(C)C(=O)N1CCOCCN(C(=O)C(C)CC(C)C(=O)O)CCOCC1)C(=O)O (stereo unspecified) | -8% | 1.02
CN1CCCCCCN(C(=O)c2ccoc2)[C@H]2CCC[C@H]2C1=O | -7% | 0.96
CC1(C)[C@H]2CC=C(CN3CCC(=O)N(CCS(=O)(=O)c4ccccc4)CC3)[C@@H]1C2 | 1% | -0.07
Cc1ccc(N2CCC[C@@]3(CCC(=O)N(CCc4c[nH]cn4)C3)C2)nn1 | -11% | 1.98
O=C(NCc1noc(-c2ccco2)n1)c1ccc(Br)cc1 | 7% | -0.92
Cc1ccc(N(C(=O)c2ccccc2)[C@H]2CCS(=O)(=O)C2)cc1C | 4% | -0.46
CCCCOc1ccccc1C(=O)N1C[C@@H]2NC(=O)c3ncccc3OCCn3cc(nn3)CO[C@H]2C1 | -4% | 0.46
C1CCCC(NC2=NCCNC23CCOCC3)CC1 | -11% | 1.41
COc1cc2c(cc1OC)/C(=N\c1ccc(C(C)=O)cc1)NC1(CCCC1)C2 | -8% | 1.2
COC[C@H]1NC(=O)CC[C@H]1C(=O)Nc1ccc(C)cc1 | -22% | 2.57
O=C1CC[C@H](C(=O)N2CCc3c(Br)cccc3C2)CN1 | -5% | 0.65
O=C(c1cccc2[nH]c(C(F)F)nc12)N(Cc1ccncc1)C1CC1 | -5% | 1.01
Cc1cc2c(=O)n(CC(=O)Nc3ccc(F)cc3)c3cccnc3n2n1 | -3% | 0.47
CCOC(=O)N1CCN(C(=O)c2c(COC)n(CCc3ccccc3Cl)c(C)cc2=O)CC1 | 5% | -0.75
O=C(Cc1ccc(NS(=O)(=O)Cc2ccccc2Cl)cc1)N1CCOCC1 | -1% | 0.23
NS(=O)(=O)C[C@H]1CCN(C(=O)c2ccc3c(c2)OCCO3)C1 | -12% | 2.27
CS(=O)(=O)N1C[C@H]2CC[C@@H](C1)N(C/C=C/c1ccc(F)cc1)C2 | -20% | 1.88
O=C(NCc1cc(F)cc(Br)c1)NC1(CCO)CCC1 | -3% | 0.33
Cc1[nH]ncc1-c1nnc(NC(=O)C2CC=CC2)s1 | -50% | 5.85
Cc1n[nH]c(C)c1CCC(=O)N1CCN([C@@H](c2ccccc2)c2ccc(Cl)cc2)CC1 | -16% | 2
Cn1ccnc1CNC(=O)c1coc(COc2cccc(C(F)(F)F)c2)n1 | -6% | 0.94

Compound | % Inhibition | Z score
Cc1ccc(CN(C(=O)c2cccc(OCC(N)=O)c2)C2CCCC2)s1 | -11% | 1.47
O=C(CCN1CCCC1=O)Nc1ccc(COC2CCCC2)cc1 | -17% | 3.33
CC(C)CN(CC(=O)N(CCc1c[nH]c2ccccc12)Cc1ccccc1)C(=O)Nc1ccc(C#N)cc1 | 1% | -0.1
CC(C)n1cc(-c2cc(C(=O)N3CCCC3)c3ccc(Cl)cc3n2)cn1 | 1% | -0.12
O=C(Cn1c(-c2cnccn2)nc2ccccc21)Nc1ccc(F)c(Cl)c1 | 14% | -1.87
CN1CCC[C@@H]1CCNC(=O)c1ccc2nc(-c3ccc(F)cc3)cn2c1 | 8% | -1.12
Cc1cc(CN2CCOc3cc(F)c(Br)cc32)no1 | -7% | 1.1
CC1CC(C(=O)N(C)CCN(C)C(=O)C2CC(C)C2)C1 (stereo unspecified) | -7% | 0.91
O=C(NCc1ccc2c(c1)CCCN2)c1ocnc1C1CC1 | -5% | 0.56
COc1cc(NC(=O)N2C[C@@H]3C[C@H]2C[C@@H]3NS(=O)(=O)c2ccccc2)cc(OC)c1 | 0% | 0.02
Oc1nnc(/C=C/c2ccc(F)cc2)o1 | -4% | 0.6
COc1ccccc1CNCC1(S(=O)(=O)NC(C)(C)C)CC1 | -3% | 0.49
O=C(NC[C@H]1CCC[C@@H](CO)C1)c1cccc(C(F)F)c1F | -12% | 1.18
Cc1nnsc1C(=O)N[C@@H](Cn1cncn1)C(C)C | 1% | -0.26
Cc1cc(C)c(C(=O)N2C[C@H](F)C[C@H]2C(N)=O)o1 | 1% | -0.13
CCC[C@H](C)CC(=O)Nc1c(S(C)(=O)=O)cnc2cc(C)nn12 | -5% | 1.06
CN(CCCNc1nccnc1C#N)CC(F)(F)F | -3% | 0.52
CCN(CC)[C@H](CNC(=O)C1=NN(C)C(=O)CC1)Cc1ccccc1 | 38% | -5.12
CC(C)NC(=O)[C@@H]1COC2(CCN(C(=O)CC(C)(C)C)CC2)N1C(=O)c1ccccc1 | -1% | 0.1
Cc1ccccc1OCCCC(=O)Nc1c(C)n(C)n(-c2ccccc2)c1=O | 0% | -0.02
Cc1cc(Cl)ccc1NC(=O)c1cn(-c2cc(-c3noc(C4CC4)n3)ccc2C)nc1C | 0% | 0.01

Compound | % Inhibition | Z score
Cc1ccc(CNC(=O)N2CCC(Cc3nncn3C)CC2)cc1 | -15% | 1.72
CC(C)n1ncnc1CNC1(Cc2ccc(F)cc2)CCOCC1 | -5% | 0.76
CN(C(=O)CN1C(=O)COc2ccc(Cl)cc21)c1nccs1 | -3% | 0.47
CCn1c(=O)sc2cc(S(=O)(=O)N3CCC(C(=O)N[C@H]4CCCc5ccccc54)CC3)ccc21 | -21% | 2.48
O=C(COCc1ccccc1)N1CCC2(CC1)c1ccccc1C[C@@H]2O | -7% | 0.96
COc1nc(C)cc(N2CCC(O)(c3nccn3C)CC2)n1 | -17% | 3.24
Cc1ccc(Cn2cnc3c2c(=O)n(C2CC2)c(=O)n3-c2ccc(C)cc2)cc1 | 8% | -1.04
CC[C@H](OC)C(=O)NCC1(N2CCCC2)CCCCC1 | -11% | 2.09
CC[C@H](O)CCCNC(=O)CCCC1CCCCC1 | -7% | 1.06
CCn1c(=O)c2ccn(CC(=O)NCCCN3CCOCC3)c2n(CC)c1=O | -15% | 1.47
COCc1nnc2n1CCC1(CC2)CCN(C(=O)NCc2cccc(F)c2)CC1 | -15% | 1.44
CC(C)C(NC(=O)N(C)CC1CCCC1O)c1ccncc1 (stereo unspecified) | -10% | 1.32
Cc1nc2n(n1)C[C@@H](NC1CC(c3ccc(F)cc3)C1)CC2 (stereo partly specified) | -7% | 1.11
O=C(O)c1cccc2c(-c3cc(-c4ccccc4)n(-c4ccccc4)n3)ccc(C(=O)O)c12 | 32% | -4.07
Cc1ccc2c(c1)C(NC(=O)NC(C)Cn1cncn1)C(C)C2 (stereo unspecified) | -6% | 0.7
O=C(CNc1ccccc1Oc1ncc(Cl)cc1Cl)Nc1ccc(F)cc1Cl | -2% | 0.28
CC(C)n1ncnc1CNc1ccc(Br)c(CO)c1 | -12% | 1.2
CNC(=O)C(C#N)C(=O)CC(C)C1CCCCC1 (stereo unspecified) | -18% | 2.27
C[C@H]1CCCN(C(=O)NCC(=O)N2CCc3ccccc3C2)C1 | -4% | 0.68
Cc1cccc([C@H]2C[C@@H](c3ccccc3Cl)Nc3ncnn32)c1 | -15% | 2.06

Source: ChEMBL document CHEMBL4888484, “Replenishing the malaria drug discovery pipeline: Screening and hit evaluation of the MMV Hit Generation Library 1 (HGL1) against asexual blood stage Plasmodium falciparum ,using a nano luciferase reporter read-out” (2022)
